Reference: US20240101699A1, “MODULATION OF CD46 CELL SURFACE EXPRESSION AND THERAPEUTIC USE THEREOF” (The Regents of the University of California, priority 2021, published 2024)

Legend:
[1] = test system: RPMI8226, MM.1S, MM.1R, and INA6 multiple myeloma cells; assay: Binding to the surface of multiple myeloma cells
non-tumor BPH1 cells = assay: Binding to the surface of non-tumor cells
[2] = test system: LnCap-C4-2B, LnCap-C4, DU145, PC3-luc, and Hs27 prostate cancer cells; assay: Binding to the surface of prostate cancer cells

B1: YS5FL: human anti-CD46 antibody; VH SEQ ID NO: 86, VL SEQ ID NO: 87; HC SEQ ID NO: 88, LC SEQ ID NO: 89 (antibody)
heavy: QVQLVQSGGGVVQPGRSLRLACAASGLTVNNYAMHWVRQAPGKGLEWVAVISYDGNNKYYADSVKGRFTISRDNSKNTLYLQMNSLRAEDTAVYYCAKGGGYFDLWGRGTLVTVSS[human IgG1 constant region not written out]
light: QSVLTQPPSVSGAPGQRVTISCTGSSSNIGAGYDVHWYQQLPGTAPKLLIYGNNNRPSGVPDRFSGSKSGTSASLAITGLQAEDEADYYCSSYTSGTWLFGGGTKLTVLGQPKAAPSVTLFPPSSEELQANKATLVCLISDFYPGAVTVAWKADSSPVKAGVETTTPSKQSNNKYAASSYLSLTPEQWKSHRSYSCQVTHEGSTVEKTVAPTECS
specific binding to cell surface [1]: binds specifically
specific binding to cell surface (non-tumor BPH1 cells): not
specific binding to cell surface [2]: bind specifically
